PubChem BioAssay AID1346428 (National Center for Advancing Translational Sciences (NCATS), 2018)
Values joined by “and” are separate entries in the source; they are usually repeats but may differ in a detail not shown here. Equal entries are not always repeated. Screen size: about 48,000 compounds; about 1,200 (2.5%) were called active. Not shown: some 2% with an inconclusive outcome.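 The calls were made as follows: active = activation of at least 60% and not above a set upper limit (about 1 call in 100 departs from these limits); inconclusive = activation of 40% to 60%, or above that upper limit; inactive = activation under 40%.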 The list shows a part of the results.

Molecular target: Probable G-protein coupled receptor 32 (Homo sapiens) (UniProt O75388)
Chain of UniProt O75388 (O75388 whole entry, looked up): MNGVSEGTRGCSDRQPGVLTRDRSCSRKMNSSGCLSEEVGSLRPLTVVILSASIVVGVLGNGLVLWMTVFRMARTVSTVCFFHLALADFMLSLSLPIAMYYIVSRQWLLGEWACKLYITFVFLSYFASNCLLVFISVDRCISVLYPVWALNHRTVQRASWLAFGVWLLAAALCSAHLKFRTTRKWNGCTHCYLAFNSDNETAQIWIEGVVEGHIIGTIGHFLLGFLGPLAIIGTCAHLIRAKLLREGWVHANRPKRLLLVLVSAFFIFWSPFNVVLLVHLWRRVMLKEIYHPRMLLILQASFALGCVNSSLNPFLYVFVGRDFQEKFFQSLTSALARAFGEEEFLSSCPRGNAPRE
Assay: qHTS for Agonists of Human Resolvin D1 Receptor DRV1; also: 0% is about no effect
Conditions: CHO-K1 GPR32 beta-arrestin PathHunter luminescence, 90 min; at 76.9 µM; active compounds read high; zero percent set by DMSO-only wells
Summary of the method: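 Luminescent readout of beta-Gal complementation quantifies ligand-induced beta-arrestin association with GPR32 in CHO-K1 cells; 90 min compound incubation at 37 °C, detection 1 h at room temperature.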

| Structure (SMILES) | activation |
| --- | --- |
| COc1cc2nc(NCCc3cccc(C)c3)n3nc(-c4ccccc4)nc3c2cc1OC | inactive: 26% |
| CCOc1ccccc1C(=O)Nc1cccc(-c2nc3ccccc3s2)c1 | inactive: -0.118% |
| Cc1cc(C)cc(NC(=O)NCc2noc3ccccc23)c1 | inactive: -0.982% |
| CCC(=O)N1CCCc2cc(S(=O)(=O)N3CCC(C(=O)NC4CCC(C)CC4)CC3)ccc21 (stereo not drawn) | inactive: -0.767% |
| O=C(OCc1cc(=O)n2nc(C3CC3)sc2n1)c1cccc(NC(=O)c2ccccc2Cl)c1 | inactive: 1.84% |
| Cc1ccc(C)c(NC(=O)c2cnc(N3CCCC3)nc2C)c1 | inactive: 3.04% |
| COc1ccccc1/C=C/c1nc(C#N)c(NCc2ccccc2)o1 | inactive: -27.5% |
| COc1ccc(-c2cn3c(n2)sc2cc(C(=O)NCCc4ccccc4)ccc23)cc1 | inactive: 10.2% |
| CCc1ccccc1N(CC)C(=O)c1cc2c(s1)-c1ccccc1SC2 | inactive: 10.6% |
| Cc1cccc(CNC(=O)C2CCN(c3nn4cc(-c5ccc(F)cc5)nc4s3)CC2)c1 | inactive: 6.12% |
| COc1ccc(-n2ncc(C(=O)NCc3cccs3)c2C2CCN(C(=O)OC(C)(C)C)CC2)cc1 | inactive: -9.76% |
| O=C(Cc1ccc(Cl)cc1)NC1CC(=O)N(c2ccc3c(c2)OCCO3)C1 (stereo not drawn) | inactive: -0.218% |
| COCCOC(=O)C1=C(C)NC(C)=C(C(=O)OC/C=C/c2ccccc2)C1c1cccc([N+](=O)[O-])c1 (stereo not drawn) | inactive: -25.9% and inactive: -28.1% |
| Cc1ccccc1C(=O)N1CCC(c2nc(-c3ccc(S(=O)(=O)N4CCCC4)cc3)no2)CC1 | inactive: 0.163% |
| Cc1ccsc1CN(Cc1ccco1)c1cnc(S(C)(=O)=O)nc1C(=O)Nc1ccc(Cl)cc1 | inactive: -13.8% |
| Cn1c(=O)oc2cc(S(=O)(=O)CCC(=O)NCc3ccc(Cl)cc3)ccc21 | inactive: -12.4% |
| Clc1cccc(Nc2ncnc3c2nc2n3CCCCC2)c1 | inactive: 1.93% |
| Cc1ccc(NC(=O)N2CC=C(c3c[nH]c4ccccc34)CC2)cc1Cl | inactive: -4.26% |
| CC1CCN(C(=O)CN2CC(C)Sc3ccccc32)CC1 (stereo not drawn) | inactive: -9.45% |
| CCOCCn1ccc2c(OCC(=O)Nc3cc(C)cc(C)c3)cccc2c1=O | inactive: 35.7% |
| COc1ccc(-c2cn3nc(SCC(=O)Nc4cccc(C)c4C)ccc3n2)cc1 | inactive: -7.45% |

| Structure (SMILES) | activation |
| --- | --- |
| COc1ccc(Nc2nc3ccccc3n3c(N)nnc23)cc1 | inactive: -9.85% |
| Cc1ccc(NS(=O)(=O)c2ccc(-n3cccn3)cc2)c(Br)c1 | active: 71.7% |
| Cc1cccc(C(=O)Nc2ccc(OCc3cc(=O)n4ccc(C)cc4n3)cc2)c1 | inactive: 2.5% |
| CCC(Nc1ccc(-c2nc(-c3ccccn3)no2)cc1[N+](=O)[O-])c1ccccc1 (stereo not drawn) | inactive: -11.5% |
| COc1cc2c(cc1OC)C(COc1cc(C)cc(C)c1)N(C(=O)C(C)(C)C)CC2 (stereo not drawn) | inactive: -3.16% |
| CCCCN(C)C(=O)CCC(=O)NNc1nc2ccccc2c2nc(C)nn12 | inactive: -14% |
| Cc1ccc(C(c2sc3nc(-c4ccco4)nn3c2O)N2CCN(c3ccc(F)cc3)CC2)cc1 (stereo not drawn) | inactive: -2.73% |
| COc1cc2c(C(=O)N(C)c3cccc(C(F)(F)F)c3)cn(CC(C)C)c(=O)c2cc1OC | inactive: -11.4% |
| Cc1cccc(N2CCn3c2nc2c3c(=O)n(CCCc3ccccc3)c(=O)n2C)c1 | inactive: -3.6% |
| Cc1oc(-c2cccc(Cl)c2)nc1Cn1c(SCc2ccc(F)cc2)nc2cccnc21 | inactive: -19.9% |
| COc1cc(CN(C(=O)COc2ccccc2)c2ccccn2)cc(OC)c1OC | inactive: -7.32% |
| Cc1ccc(C2CC(=O)Nc3c2c(C)nn3-c2nc(C)cc(C)n2)c(C)c1 (stereo not drawn) | inactive: -3.53% |
| O=C(CCCCCn1c(=O)c2sccc2n(CC(=O)Nc2ccccc2F)c1=O)NCc1ccc2c(c1)OCO2 | inactive: -24.8% |
| CCC(C)OC(=O)/C(C#N)=C/c1ccc(-c2ccc(Br)cc2)o1 (stereo not drawn) | inactive: -2.59% |
| Cc1cc2n(n1)CCCN2C(=O)Nc1ccccc1C(F)(F)F | inactive: -17.7% |
| CCc1ccc(S(=O)(=O)c2nnn3c2nc(N(CC)Cc2ccccc2)c2cc(Cl)ccc23)cc1 | inactive: 4.66% |
| CN(C)C(=O)c1ccc(S(=O)(=O)NCc2ccc(Cl)cc2)s1 | inactive: -19.4% |
| CCCCN(CC)C(=O)CSc1nc2c(sc3ccccc32)c(=O)n1CCc1ccccc1 | inactive: 40.5% |
| CCc1ccccc1Nc1sc(C(=O)c2ccccc2)c(N)c1S(=O)(=O)c1ccccc1 | inactive: -41.5% |
| O=C(NO)c1ccccc1 | inactive: 21.4% |
| COC(=O)c1scc(-c2ccc(C)cc2)c1S(=O)(=O)N1CCN(c2cccc(Cl)c2)CC1 | inactive: -40% |

| Structure (SMILES) | activation |
| --- | --- |
| O=C(O)/C=C/c1ccc(Cn2ccnc2)cc1 | inactive: -0.606% |
| CCN(CCCNC(=O)Cn1ncc2c([nH]c3ccccc32)c1=O)c1cccc(C)c1 | inactive: -13.2% |
| CCc1ccccc1NC(=O)Cn1c(=O)n(-c2ccc(C)cc2)c(=O)c2cc(OC)c(OC)cc21 | inactive: -6.2% |
| Cn1c(=O)sc2cc(NS(=O)(=O)c3ccc(C(C)(C)C)cc3)ccc21 | inactive: -13.3% |
| Cc1ccc(S(=O)(=O)c2nc(-c3cccs3)oc2N2CCC(C)CC2)cc1 | inactive: -19.2% |
| CC(=O)N1CCc2c(sc3c2c(=O)n(-c2ccccc2C)c(=O)n3CC(=O)Nc2ccccc2)C1 | inactive: -7.31% |
| Cc1c(C(=O)Nc2c(F)cccc2F)sc2ncn(Cc3ccccc3F)c(=O)c12 | inactive: -15.9% |
| Fc1cccc(/C=N/N=C/c2cccc(F)c2)c1 | inactive: 2.71% |
| COc1ccc(C(=O)NCc2cn3ccc(C)cc3n2)cc1 | inactive: -4.8% |
| CCCCNC(=O)CSc1nc2cc3c(cc2c(=O)n1CCCC(=O)NCc1ccc(OC)cc1)OCO3 | inactive: -16.9% |
| CN(Cc1ccccc1)c1nc2c(S(=O)(=O)c3cccc(Cl)c3)nnn2c2ccsc12 | inactive: -13.9% |
| CC(C)CC(=O)NC1CC(=O)N(c2ccc3c(c2)OCCO3)C1 (stereo not drawn) | inactive: -1.39% |
| O=S(=O)(NCCc1csc2nc(-c3ccc(Cl)cc3)nn12)c1cccs1 | inactive: -1.56% |
| Cc1ccc2c(c1)N(C(=O)N1CCC(C(=O)Nc3cccc(F)c3)CC1)CCO2 | inactive: 1.65% |
| CCC1CN(S(=O)(=O)c2cc(-c3cc(C)no3)ccc2OC)c2cc(Cl)ccc2O1 (stereo not drawn) | inactive: -25.4% |
| COC(=O)c1ccccc1NC(=O)NCc1ccc2c(c1)CCN2C(=O)c1ccccc1 | inactive: -4.37% |
| CN1CCN(c2nc3cc(C(F)(F)F)ccc3n3cccc23)CC1 | inactive: 1.49% |
| O=C1CN(C(=O)c2ccc(S(=O)(=O)N3CCCC3)cc2)C(c2ccc(F)cc2)c2cc(Br)ccc2N1 (stereo not drawn) | inactive: -14% |
| COc1ccccc1Nc1cc(C(=O)NCCCN(C)C2CCCCC2)c2ccccc2n1 | inactive: -15.6% |
| O=c1c2oc3ccccc3c2n(Cc2ccccc2Cl)c(=O)n1Cc1ccc2c(c1)OCO2 | inactive: -8.7% |
| CCc1ccccc1NC(=O)CN(c1cc(C(F)(F)F)ccc1Cl)S(=O)(=O)c1ccccc1 | inactive: -0.113% |

| Structure (SMILES) | activation |
| --- | --- |
| COc1cc(Nc2nc3c(S(=O)(=O)c4ccccc4)nnn3c3ccc(Cl)cc23)cc(OC)c1 | inactive: -8.28% |
| Cc1cc(C)cc(NC(=O)[C@H]2O[C@@H]3OC(C)(C)O[C@@H]3[C@H]3OC(C)(C)O[C@H]32)c1 | inactive: 7.63% |
| CCOC(=O)c1ccc2c(c1)N(Cc1cc(C)ccc1C)C(=O)c1ccccc1S2(=O)=O | inactive: -6.29% |
| O=C(COc1ccc(Cl)cc1)OCc1cc(=O)n2nc(C3CCCCC3)sc2n1 | inactive: 11.7% |
| Cc1ccc2c(c1)N(C(=O)CCC(=O)NCc1ccccc1F)CC(C)O2 (stereo not drawn) | inactive: -18.8% |
| Cc1ccc(CCNC(=O)c2ccc3c(c2)N(Cc2cccc(F)c2)C(=O)c2ccccc2S3)cc1 | inactive: -11% |
| COc1cccc2cc(C(=O)Nc3ccc(C)cc3)c(=O)oc12 | inactive: 0.602% |
| CCOC(=O)c1ccc(NC(=O)C2=C(C)C(=O)OC23CCN(C(C)C)CC3)cc1 | inactive: -2.74% |
| Cc1ccc2c(=O)cc(C(=O)Nc3sc4c(c3C(=O)NCc3cccnc3)CCCC4)oc2c1 | inactive: 5.51% |
| O=C(NCC(c1cccnc1)N1CCc2ccccc21)c1ccc(Cl)cc1 (stereo not drawn) | inactive: -27.1% |
| Cc1ccc(-n2ncc(C(=O)NCCN3CCC(Cc4ccccc4)CC3)c2C2CCN(C(=O)OC(C)(C)C)CC2)cc1 | inactive: -24.7% |
| CCn1cc(S(=O)(=O)c2ccccc2)c(=O)c2cc(F)c(F)cc21 | inactive: -12% |
| Cc1ccc(CN(C(=O)COc2ccc(F)cc2)C2CCS(=O)(=O)C2)o1 (stereo not drawn) | inactive: -11.9% |
| COc1ccc(-c2cc(C(F)(F)F)nc(SCC(=O)NC(C)c3ccccc3)n2)cc1 (stereo not drawn) | active: 106% |
| CCOc1ccc(N(CC)C(=O)Cn2cnc3sc(C)c(S(=O)(=O)N4CCN(c5ncccn5)CC4)c3c2=O)cc1 | inactive: -12.6% |
| CC(C)CCNC(=O)c1ccc2nc(Cc3ccccc3)oc2c1 | inactive: -13.5% |
| Cc1cc(NS(=O)(=O)c2ccc(NC(=O)COc3cc(C)c(Br)cc3C(C)C)cc2)no1 | active: 107% |
| Cc1ccc(NC(=O)C2CCCN(S(=O)(=O)c3cccs3)C2)c(C)c1 (stereo not drawn) | inactive: -11.3% |
| COc1ccc(S(=O)(=O)N(CC(=O)Nc2ccc(Br)cc2)Cc2ccccc2)cc1 | inactive: 3.29% |
| CCCN1C(C(=O)c2ccccc2)=C(OC(=O)COc2ccc(C)cc2)c2ccccc2S1(=O)=O | inactive: -65.3% |
